Measurements: the supplement of paper PMC5499739
Over roughly 16,000 sequences, “Z-score” has its median near -0.37; the highest 2% begin near 3.1. This is one part of the list.

test system: RBM10 RRM1-ZnF-RRM2 (GST-tagged construct); assay: RNAcompete 7-mer binding Z-score; higher = stronger binding preference
Procedure, shortened: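 Each heptamer motif was given a one-sided Z-score for enrichment across the probes that contained it. GST-tagged RBM10 constructs (20 pmol) were combined with 1.5 nmol of a designed pool of 241 399 RNAs of up to 41 nt, transcribed from microarray-derived DNA templates. Binding took place in 1 ml Hepes pH 7.8 buffer containing KCl, NaCl, glycerol, DTT, BSA and glutathione Sepharose beads for 30 min at 4°C. After four 2-min washes at 4°C, bound RNA was identified by microarray hybridisation.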

Sequence | RNAcompete 7-mer binding Z-score
CUUAUUG | -0.777
UGUGACU | -0.242
UUGUAGU | -0.322
UGCUAUA | -0.515
UAUUUAU | -0.573
UCCACGC | -0.734
AGCUAAA | -0.256
GCAGUUG | 0.352
CCCGUUG | -0.69
GAAACGU | 0.101
GCUAAUU | -0.697
GGAAAUG | 2.83
CUGGUAC | -0.209
CAACUCC | -0.628
UUUUGAU | -0.621
UGAGACC | -0.391
AAGAAAC | -0.0925
AGUGUCU | -0.624
UAAGAUG | 0.363
AAUGAAG | 0.599
GGCCCCU | -0.646
UGGCUCU | -0.57
GCUGUUG | -0.442

Sequence | RNAcompete 7-mer binding Z-score
ACCGCCA | -0.744
CGAUGUG | 0.173
CGGCAAA | 0.406
GCUUCUA | -0.821
CUAUACG | -0.646
AAUGCAU | -0.402
CUUCGAC | -0.777
GAUGGGC | 2.09
UCCGGAA | -0.242
UGCCACC | -0.759
UAGUCGU | -0.176
GAGUGGC | 1.81
UAGAACU | -0.231
GCAGAGC | 0.691
GAUCGUG | 0.221
GUCGGAA | 0.92
GGCCCUC | -0.836
UCGAGAU | -0.246
GAGAGGA | 2.15
CCUAGUU | -0.781
CUUGUAG | -0.5
GAUCCCC | -0.526
UAUAAUU | -0.493

Sequence | RNAcompete 7-mer binding Z-score
UCCAGCA | -0.533
UAGGUCU | 0.0204
GUGUGCG | 1.39
UGACGCU | -0.69
AUGUCUC | -0.661
UAACAAC | -0.442
UGUCACC | -0.628
ACCCACC | -0.584
GUAGUUG | 0.945
UUCGGAU | -0.256
AAAAAUC | -0.475
ACGAUAG | 0.468
CCCCUCA | -0.606
GACUAAG | 0.141
UAAGCAA | -0.0816
AUCACAA | -0.402
ACACUCG | -0.639
CGGAAGA | 0.862
GGGAAUU | 1.91
GGUCGGA | 1.6
UACCGAC | -0.65
ACGGACG | 0.884
UACGAAU | -0.151

Sequence | RNAcompete 7-mer binding Z-score
AAAAGGU | 2.52
CUAUACC | -0.726
AACGUUG | -0.0124
UGCAACA | -0.3
AGAAUAC | -0.318
GAUCAAC | -0.366
GGCUGUA | 0.0058
CUAUUGU | -0.602
UGUAAGA | 0.202
UGCACAC | -0.413
CCGUUAC | -0.777
ACAAACA | -0.187
UCGGGUA | 1.57
UCUAGAG | -0.486
UAUAAAU | -0.428
CGGUCAA | -0.333
CUAACAG | -0.369
AAGCCAG | -0.318
CAAGCAA | -0.103
UAUACAC | -0.424
GCCUCAA | -0.821
CUGAGAC | -0.402
CUGAGCC | -0.668

Sequence | RNAcompete 7-mer binding Z-score
GUGUUGG | 1.79
GAGGUCA | 0.545
UUAUGAA | -0.369
GCACUCA | -0.632
GAGGGCU | 1.27
CUUAUCC | -0.865
GAUCACC | -0.657
AGGCUCC | -0.624
UAAGUCA | -0.0816
GGACUCU | -0.541
AUAGGGC | 2.14
CUCAUAA | -0.887
CACGCGG | 0.294
CCGGAAG | 0.352
GCUGAUC | -0.453
AAAUCGA | -0.0452
GUCAUUU | -0.53
UGACGAC | -0.235
CCAGUCU | -0.741
UUGGGAG | 2.51
GGUUCAC | -0.0488
AUGUAAA | 0.0386
ACCCCCG | -0.544

Sequence | RNAcompete 7-mer binding Z-score
UUAGUAA | -0.355
GCGGAGG | 3.25
UGGGUUC | 1.07
GUCCUUC | -0.814
CGAGAGU | 0.141
GCAGGAC | 1.14
CUGGGAC | 0.905
CAGUUUG | -0.384
CACAGAG | 0.195
GUUCCAG | -0.227
GUGCUAC | -0.235
AAUAAUU | -0.482
UCAAGGA | 1.02
CCUAUUC | -0.989
CCCCGUC | -0.624
CUGGCUU | -0.592
GAGAAAC | 0.246
CUAGUCA | -0.555
AUCACCG | -0.592
UUCCUCA | -0.843
GCCAGCA | -0.205
CGUGCGA | -0.209
AGGUUCA | 0.192

Sequence | RNAcompete 7-mer binding Z-score
CAGCACA | -0.442
GGGGUCA | 3
AUAAAGU | -0.0598
CGUGUUU | -0.544
CAGACCC | -0.657
AAUGGUG | 2.35
GAGAAUC | 0.075
GUAUGGU | 2.04
UACUUAG | -0.526
CGCGAGA | -0.289
AGAUGCA | -0.0925
AUAAUCG | -0.449
AGAUCCU | -0.989
GAUCAUA | -0.198
GCGCAUC | -0.504
CUACGCA | -0.602
CGGUAUC | 0.0131
UUCUUGA | -0.879
GGAGGGG | 4.18
UGGUCUC | -0.402
AUCCGUU | -0.672
CCGUUCG | -0.759
CUACGUC | -0.559

Sequence | RNAcompete 7-mer binding Z-score
UAUAAAC | -0.322
ACGAUCU | -0.836
CGAUAUU | -0.573
UACUGGG | 1.1
UACUUGG | -0.162
UCUAAGG | -0.078
CGAGGAA | 1.59
CAAUUGG | 1.07
GUUGUUG | 0.104
CCCCGAC | -0.435
CUAAGGG | 1.35
GAGUCAA | 0.261
AGGUGCA | 1.57
ACCGUUC | -0.916
UACGGGC | 0.971
UGAGGCG | 1.68
AUAACAU | -0.253
CGUGGGA | 2.39
GAUGGAA | 3.04
UGCGUCC | -0.708
CAGUGUC | -0.479
AUAUGCC | -0.679
UGGAUCU | -0.187
